Among all 1,200 compounds or so, about 30 (2%) were called active. About 23% were inconclusive and are not listed. The call rests on the fitted dose curve; in most records, active means well fitted inhibition curve with a large enough effect; inconclusive means small, poorly fitted or top-dose-only effect; inactive means flat fitted curve, though single readings scatter. The list shows a part of the results.
What follows are compounds tested against Single-stranded DNA cytosine deaminase (Homo sapiens) (UniProt Q9GZX7) (assay: Confirmatory qHTS assay for inhibitors of Activation Induced Cytidine Deaminase (AID): AID signals). Settings: recombinant AID, FRET deamination/UDG coupled fluorescence, 4 h; series mostly up to 115 µM; activity, negative = inhibition: at the top concentration.
Sequence of UniProt Q9GZX7 (Q9GZX7 whole entry, looked up): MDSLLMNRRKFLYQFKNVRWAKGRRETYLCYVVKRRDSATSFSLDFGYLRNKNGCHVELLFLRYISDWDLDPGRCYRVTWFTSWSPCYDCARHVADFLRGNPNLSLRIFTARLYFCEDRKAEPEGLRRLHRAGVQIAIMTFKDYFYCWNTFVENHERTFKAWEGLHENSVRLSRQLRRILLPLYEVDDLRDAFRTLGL
Text: Assay Provider (PI) Patricia Gearhart Ph.D. National Institute on Aging National Institute of Health (NIH), Bethesda, MD Assay Provider (PI) Rahul Kohli Ph.D. Perelman School of Medicine University of Pennsylvania, Philadelphia, PA Activation-Induced Deaminase (AID) is a cytosine deaminase which converts cytosine into uracil within stretches of ssDNA. The presence of uracil in DNA initiates a cascade of mutagenic DNA repair to introduce point mutations and DNA double strand breaks. Specific targeting of AID to the immunoglobulin heavy chain loci (Igh) promotes mutagenesis in the antibody variable region for somatic hypermutation (SHM) or switch regions leading to class switch recombination (CSR). However, AID also plays a role in accumulating unnecessary mutations across the genome. Mis-targeting of AID results in the initiation of tumor development and leads to greater drug resistance among cancer cells when continually expressed. To identify an AID inhibitor, a small molecule library will be screened in collaboration with NCATS core facility at NIH. To confirm biological function, inhibitors will be examined in an in vitro murine B-cell activation assay and subsequent secondary validation screens. Top molecules will be further screened to identify inhibitory efficacy against a wild type primary splenocytes assay. Using these approaches, we hope to identify a small molecule with great efficacy and low toxicity for use as a molecular probe to further characterize AID's intricacies, or even as a therapeutic. A FRET based analysis of cytosine deamination, was developed to identify potential inhibitors of AID catalytic activity. This screen has two signal output, Read 1 evaluates the AID inhibition response. The second readout (Read 2) evaluates UDG response and is uses as a counterscreen to exclude false positive inhibitors. Inhibition in AID and inactivity in the UDG signal is the desired outcome for this assay.
PROTOCOL TABLE SEQUENCE No. (e.g., 1, 2, 3, etc.); […] (e.g., Cells, Incubation, Reagent, etc.); VALUE; DESCRIPTION 1a; Reagent; 3 uL; [4/3x] 1 uM AID/2.67 U/mL UDG 1b; Reagent; 3 uL; 2 U/mL UDG 1c; Reagent; 3 uL; 1 uM AID 2a; Compound; 46 nL; Follow-up plates (0.64 uM - 10 mM) 2b; Control; 46 nL; ATA (16.4 nM - 10 mM) 3; Time; 10 min; incubation at room temperature 4; Reagents; 1 uL; [4x] 250 nM DJC20 / 250 nM DJC23 [Substrate] 5; Time; 4 hr; incubation at room temperature 6; Reagent; 4 uL; [2x] 250 mM NaOH 7; Time; 15 sec; centrifuge at 1000 rpm 8; Time; 30 min; incubation at room temperature 9a; Detection; fluorescence (Read 1: AID); EnVision (PerkinElmer) plate reader, 540 excitation and 590 emission filters 9b; Detection; fluorescence (Read 2: UDG); EnVision (PerkinElmer) plate reader, 560 excitation and 665 emission filters NOTES (numbers refer to sequence above) 1a; Reagents were dispensed in a medium-binding black solid-bottom Greiner plates (789176F) using a BioRptr liquid dispenser. Dispense 3 uL of [4/3x] 1 uM AID (provided by Kohli lab) and [4/3x] 2 U/mL UDG (NEB M0280L) into columns 1, 2, 5 to 48. 1b; Dispense 3 uL of [4/3x] 2 U/mL UDG into column 3. 1c; Dispense 3 uL of [4/3x] 1 uM AID into column 4. 2a; Compound ([…] [uM]: 0.64; 3.2; 16; 80; 400; 2,000; 10,000; 20,000) double pin-transferred (Dip Factor = 2) using the Kalypsys (Wako USA) pintool equipped with a 1536 pinhead for a final concentration range of 7.32 nM - 114 uM. 2b; 10 mM Aurintricarboxylic Acid (Sigma A1895) (ATA, 8-point, n = 2, 1:2.5 dilution in column 2) double pin-transferred (Dip Factor = 2) using the Kalypsys (Wako USA) pintool equipped with a 1536 pinhead for a [final] range of 186 nM - 114 uM. 3; Room temperature incubation. 4; Dispense 1 uL of substrate mixture from the Kohli lab [4x] […] DJC20 and [4x] 250 nM DJC23 into columns 1 to 48 . 5; Room temperature incubation. 6; Dispense 4 uL of […] [2x] 250 mM NaOH into columns 1 to 48. 7; Centrifugation step to remove bubbles. […]
On the % scale 0 is the no-effect control and ±100 the full control effect.

activity, negative = inhibition, inactive:
C=CCc1c(C)nc2nc(SCC(=O)Nc3cccc(Cl)c3)nn2c1C -1.94%
COc1ccc(CN(Cc2ccco2)C(=O)COc2ccc(Cl)cc2C)cc1 -5.94%
Cc1c(C(=O)N(C)Cc2ccccc2)sc2nc(-c3ccc(F)cc3)cn12 -20%
Cc1ccc(C)c(NC(=O)CSc2nccn2-c2cccc(C)c2C)c1 -14.5%
Cc1nn(-c2nc(-c3ccccc3)cc(C(F)(F)F)n2)c(C)c1Cl -5.99%
CCCCN(C)CC(O)Cn1cc(/C=C/C(=O)c2ccc(Br)cc2)c2ccccc21 (configuration not stated) -14.5%
CCCN1CCN(c2ncnc3sc(C(=O)Nc4ccc(C(C)C)cc4)c(C)c23)CC1 -7.47%
Cc1ccc(C)c(N2CCN(C(=O)c3cn(CC(C)C)c(=O)c4c3c3ccccc3n4C)CC2)c1 -21.1%
Cc1ccc(Cn2c(CCNC(=O)c3cccc(C)c3)nc3ccccc32)cc1 -12.2%
COc1ccc(-c2nc3sc(CCNC(=O)c4ccc(Br)o4)c(C)n3n2)cc1 -4.97%
CCC(C)c1ccc(OCC(=O)Nc2cccc(-c3nc4ncccc4o3)c2)cc1 (configuration not stated) -15.6%
CCN(CC)S(=O)(=O)c1ccc(C(=O)NCCSc2c(-c3ccccc3)[nH]c3ccccc23)cc1 2.03%
Cc1ccc(-n2ncc(C(=O)NCc3ccco3)c2C2CCN(C(=O)OC(C)(C)C)CC2)cc1C -8.95%
CCc1ccc(Nc2nc3ccccc3nc2NS(=O)(=O)c2ccccc2)cc1 -7.57%
CCC(Sc1nc2c(sc3ccccc32)c(=O)n1CCc1ccc(OC)c(OC)c1)C(=O)N(CC)CC (configuration not stated) -18.2%
Cc1cc(C)cc(-n2ccnc2SCC(=O)Nc2cccc3ccccc23)c1 -7.94%
Cc1nc2cc(-c3ccccc3)nn2c(C)c1CCC(=O)N1CCN(c2ccc(F)cc2)CC1 -9.73%
CSc1nc(NCCOC(C)=O)c(C#N)c(-c2ccc(C(C)(C)C)cc2)n1 -16.2%
Cc1cccc(-n2ccnc2SCC(=O)Nc2cccc3ccccc23)c1 1.1%
COc1cccc(CC(=O)Nc2ccc3nc(N4CCC(C)CC4)cc(C)c3c2)c1 7.48%
Cc1ccc(-c2sc(C(=O)Nc3ccc(Br)cc3)cc2CC(=O)O)cc1 -3.84%
CCn1c(=O)c2cc(C(=O)N(CCCOC(C)C)Cc3ccco3)sc2c2ccccc21 -9.49%
Cc1ccc(C(=O)N(Cc2ccco2)Cc2sccc2C)cc1 -5.35%
CCc1nnc2c(N3CCN(c4cccc(C)c4)C(C)C3)nc3ccccc3n12 (configuration not stated) -18.2%
COc1cc(Cn2c(=O)oc3ccc(C)cc32)ccc1OCCC(C)C -1.73%
Cc1nn2c(=O)cc(COC(=O)C(c3ccccc3)c3ccccc3)nc2s1 -3.6%
CCc1ccc(CNC(=O)CCCN2C(=O)c3cccnc3Oc3ccc(Cl)cc32)cc1 -19.1%

— PubChem BioAssay AID1347434 (National Center for Advancing Translational Sciences (NCATS), 2020)
